Test results reported in PubChem BioAssay AID1963576 (National Center for Advancing Translational Sciences (NCATS), 2024).
The whole screen tested about 46,000 compounds, of which about 60 (0.1%) were called active. Roughly 3% stayed inconclusive and do not appear here. Calls come from the whole dose curve; as a rule, active = well fitted inhibition curve with a large enough effect; inconclusive = small, poorly fitted or top-dose-only effect; inactive = no such curve, though single readings can be large or run the other way. The list shows a part of the results.

assay: Primary qHTS assay for Inhibitors of ovarian cancer metastasis using an organotypic tumor microenvironment (TME) model.; note: nearly all actives have a fitted effect of over 65% in size;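 for activity change, negative = inhibition: plate controls were DMSO wells for no effect and tomatine positive control wells for full effect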; details: SKOV3ip1-GFP adhesion/invasion on 3D omental model, fluorescence; series mostly up to 45.8 µM; activity change, negative = inhibition: at the top concentration
Outline: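 A 3D layer of primary human omental fibroblasts, mesothelial cells, fibronectin and collagen I, grown 48 hr, received SKOV3ip1-GFP cells in serum-free medium plus compounds at 0.36-46 umol/L. After 2 hr RT and 16 hr 37 C, fixed adherent GFP cells were counted; normalized to DMSO and tomatine.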

outcome, inactive:
N#Cc1ccccc1NC(=O)C(=O)NCCc1csc2nc(-c3cccc(F)c3)nn12, CC1CCC(Nc2nc3c(-c4ccc(Cl)cc4)nnn3c3ccccc23)CC1 (configuration not stated), COc1ccccc1CNS(=O)(=O)c1ccc2c(c1)NC(=O)C(C)C(=O)N2 (configuration not stated), CC(=O)Nc1ccc(/C=C/c2nc(-c3ccccc3O)n(-c3ccccc3)n2)cc1, O=C(NCc1ccccc1)c1cc2sccc2n1Cc1ccc(Cl)cc1, CCOc1ccc(N(C)C(=O)CS(=O)(=O)c2cccc3nsnc23)cc1, CCC(=O)N1c2ccccc2CC1C(=O)N1CCN(c2cccc(Cl)c2)CC1 (configuration not stated), CCc1ccc(NCc2cc3ccc(OC)cc3n(CC(=O)Nc3ccc(F)cc3F)c2=O)cc1, Cc1nn(-c2ccccc2)c2c1N(CCCC(=O)NCc1ccc(N(C)C)cc1)C(=O)CS2, O=C(c1ccco1)n1nc(-c2ccccc2)nc1NCc1ccc(Cl)cc1, COc1cccc(CNCCSc2nnnn2C)c1OCc1ccccc1Cl, Cc1nn2c(=O)cc(COC(=O)c3ccco3)nc2s1, Cc1cc(Cl)ccc1OCC(=O)Nc1c(Cl)ccc2nsnc12, Cc1cc(=O)[nH]c2nnc(SCc3ccc(F)cc3)n12, Cc1ccc(C)c(S(=O)(=O)c2nnn3c2nc(Nc2ccc(C)c(C)c2)c2sccc23)c1, O=C(COc1ccccc1F)Nc1ccc2oc(-c3cccc(Cl)c3)nc2c1, COc1cccc(/C=C/c2nc(C#N)c(NCCc3ccccc3)o2)c1, CCOC(=O)COc1ccc(CC)cc1C(=O)c1ccn2nc(-c3ccccc3)cc2n1, CCCOc1cccc(C(=O)Nc2cccc(-c3nc4ncccc4o3)c2C)c1

Activity change, negative = inhibition, inactive:
CC(=O)c1ccc(NC(=O)CN2C(=O)CCc3ccccc32)cc1 -5.93%, Cc1ccc(Cn2cc(CCC(=O)NC3CCC(C)CC3)c3ccccc32)cc1 (configuration not stated) 10.5%, O=C(CSc1oc(-c2ccccc2)nc1S(=O)(=O)c1ccc(Cl)cc1)Nc1ccc(F)cc1 -11.3%, CCOC(=O)c1cccc(NC(=O)NCc2cccn2Cc2ccccc2)c1 0.642%, Cc1ccc2occ(CC(=O)N(Cc3ccccc3Cl)C3CCS(=O)(=O)C3)c2c1 (configuration not stated) 0.643%, Cn1c(=O)oc2cc(S(=O)(=O)N3CCCC(C(=O)NCCc4ccc(Cl)cc4)C3)ccc21 (configuration not stated) 44.9%, CCCCSc1nc(-c2ccc(OC)cc2)ccc1C#N 3.49%, Cc1ccc(-c2nc(-c3cc4c([nH]c3=O)CC(C)(C)CC4=O)sc2C)cc1 -3.12%, COC(=O)c1ccccc1NC(=O)Cn1c(CCC(=O)O)ccc1-c1cccs1 13.1%, Cc1cccc(-c2nc(C)c(CCNC(=O)C(=O)Nc3cccc(Cl)c3C)s2)c1 2.91%, O=C(Cn1cc(SCc2ccc(C(F)(F)F)cc2)c2ccccc21)N1CCOCC1 2.95%, O=C1CCC(N2C(=O)c3ccccc3C2=O)C(=O)N1 (configuration not stated) -11.6%, COC(=O)CSc1ncc2c(n1)-c1ccccc1N(Cc1ccccc1C)S2(=O)=O 4.28%, CC(C)Oc1ccc(CNC(=O)CCCN2C(=O)CCn3nc(-c4cccn4C)cc32)cc1 3.62%, COc1ccccc1N1CCN(C(=O)C(CCSC)NS(=O)(=O)c2ccc3c(c2)oc(=O)n3C)CC1 (configuration not stated) 1.36%, COc1ccc2nc3oc(C(=O)N4CCN(c5cc(C)ccc5C)CC4)cc3cc2c1 -13.3%, CCC(=O)N1CCc2cc(S(=O)(=O)CCC(=O)Nc3ccc(OC(F)(F)F)cc3)ccc21 10.4%, O=C(Nc1ccc(F)cc1)N1CCN(c2ccccc2F)CC1 9.58%, COc1cccc(CNS(=O)(=O)c2ccc3c(c2)CCN3C(=O)C2CCC2)c1 -6.28%, O=C(Nc1c(C(=O)N2CCN(c3ccccc3)CC2)oc2ccccc12)c1ccc(Br)o1 -1.49%, O=C(NCc1cccs1)c1ccc(Cn2c(SCc3ccccc3)nc3cccnc32)cc1 -22.3%, COc1ccc(Cn2c(SCC(=O)NCc3ccc(Cl)cc3)nc3ccsc3c2=O)cc1 9.2%, CCOC(=O)c1ccc(-n2c(CCC(=O)O)ccc2-c2ccc(Br)cc2)cc1 -3.58%, O=C(CC(c1cccs1)N1Cc2ccccc2C1=O)Nc1ccc(F)c(F)c1 (configuration not stated) -8.38%, COc1ccc(N2C(=O)CS(=O)(=O)C23C(=O)N(Cc2cccc(F)c2)c2ccccc23)cc1OC (configuration not stated) 12.3%, Cc1ccc(-c2ccc(=O)n(CC(=O)Nc3ccc(C)cc3Cl)n2)cc1 9.02%, Cc1cccc(CN2C(=O)N(c3ccc(C(C)C)cc3)S(=O)(=O)c3ccccc32)c1 3.18%, COc1ccccc1-c1nc(SCC(=O)NCc2ccc(C)cc2)c2c(=O)n(C)c(=O)n(C)c2n1 -25.6%, COc1ccc(C2C=C(c3ccccc3)Nc3nc(NC(=O)c4cccc([N+](=O)[O-])c4)nn32)cc1 (configuration not stated) -1.8%, Clc1cccc(N2CCN(c3nc4ccccc4n4nnnc34)CC2)c1 -7.39%, COc1ccc(C(=O)Nc2ccc3oc(-c4cccnc4)nc3c2)cc1 1.06%, COc1cccc(CNC(=O)c2sc3nc(C)cc(C)c3c2-n2cccc2)c1OC 5.44%, CCOC(=O)c1ccc(NC(=O)C2CCCN(c3ncnc4onc(-c5ccc(F)cc5)c34)C2)cc1 (configuration not stated) 10.1%, Cc1c(C(=O)NCc2ccccc2)sc2nc3n(c(=O)c12)CCCCC3 4.79%, Cc1ccc(OCC(=O)Nc2cccc(-c3nc4ccccc4s3)c2)cc1 -17.9%, Cc1ccc(NC(=O)c2oc3ccc(S(=O)(=O)N4CCC5(CC4)OCCO5)cc3c2C)cc1C -1.91%, Cc1nn(S(=O)(=O)c2ccc(C(C)(C)C)cc2)c(C)c1S(=O)(=O)N1CCCCCC1 8.73%, Cc1ccc(-c2n[nH]c3c2C(c2ccc(C(C)(C)C)cc2)NC3=O)cc1 (configuration not stated) -6.15%, COCCNC(=O)CCn1c(=O)c2cc(OC)c(OC)cc2n(CC(=O)Nc2ccc(Cl)cc2F)c1=O 11.8%, COC(=O)C(Cc1c[nH]c2ccccc12)NC(=O)COc1cccc(C)c1 (configuration not stated) -0.239%, COC(=O)c1sccc1S(=O)(=O)N1CCN(c2cc(Cl)ccc2C)CC1 -13.5%, Cc1ccc(Cl)cc1N1CCN(C(=O)c2ccc(NC(=O)c3nsc4ccccc34)cc2)CC1 -3.46%, CCOC(=O)c1ccc(N2CCN(c3cc(C)ccc3C)CC2)c(NC(=O)Nc2ccc(CC)cc2)c1 -4.92%
